To fix the notation:
T1: RBFOX1 RRM RbFoxmut (Fox-RRM*) (Homo sapiens, UniProt Q9NWB1 109-208, R118D;E147R;N151S;E152T)
T1 sequence: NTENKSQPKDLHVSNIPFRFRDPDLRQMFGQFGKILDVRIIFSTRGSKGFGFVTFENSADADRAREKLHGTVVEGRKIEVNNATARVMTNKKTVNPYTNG

B1: CCCCUCG (DNA:RNA)
RNA: GGGAGACCGGAAUUCAGAUUGUCCCCCCUCGUUAAAUCCCGUCGUAGCCACCA
DNA 1: CAATCTGAATTCCGGTCTCCC
DNA 2: TGGTGGCTACGACGGGATT
B2: CGUAGAU (DNA:RNA)
RNA: B1 RNA with C26G, C27U, C28A, U29G, C30A, G31U
DNA 1: CAATCTGAATTCCGGTCTCCC
DNA 2: TGGTGGCTACGACGGGATT
B3: GUAUGAU (DNA:RNA)
RNA: GGGAGACCGGAAUUCAGAUUGUCCGUAUGAUUUAAAUCCCGUCGUAGCCACCA
DNA 1: CAATCTGAATTCCGGTCTCCC
DNA 2: TGGTGGCTACGACGGGATT
B4: CUAGAUU (DNA:RNA)
RNA: B3 RNA with G25C, U28G, G29A, A30U
DNA 1: CAATCTGAATTCCGGTCTCCC
DNA 2: TGGTGGCTACGACGGGATT
B5: GGGGCUU (DNA:RNA)
RNA: B3 RNA with U26G, A27G, U28G, G29C, A30U
DNA 1: CAATCTGAATTCCGGTCTCCC
DNA 2: TGGTGGCTACGACGGGATT
B6: AGCAAUG (DNA:RNA)
RNA: B1 RNA with C25A, C26G, C28A, U29A, C30U
DNA 1: CAATCTGAATTCCGGTCTCCC
DNA 2: TGGTGGCTACGACGGGATT
B7: ACCGUAU (DNA:RNA)
RNA: B1 RNA with C25A, C28G, C30A, G31U
DNA 1: CAATCTGAATTCCGGTCTCCC
DNA 2: TGGTGGCTACGACGGGATT
B8: UAUAGGG (DNA:RNA)
RNA: B1 RNA with C25U, C26A, C27U, C28A, U29G, C30G
DNA 1: CAATCTGAATTCCGGTCTCCC
DNA 2: TGGTGGCTACGACGGGATT
B9: GAUGGGG (DNA:RNA)
RNA: B3 RNA with U26A, A27U, U28G, A30G, U31G
DNA 1: CAATCTGAATTCCGGTCTCCC
DNA 2: TGGTGGCTACGACGGGATT
B10: GAGUGGC (DNA:RNA)
RNA: B3 RNA with U26A, A27G, A30G, U31C
DNA 1: CAATCTGAATTCCGGTCTCCC
DNA 2: TGGTGGCTACGACGGGATT
B11: AGAGUCA (DNA:RNA)
RNA: B1 RNA with C25A, C26G, C27A, C28G, G31A
DNA 1: CAATCTGAATTCCGGTCTCCC
DNA 2: TGGTGGCTACGACGGGATT
B12: ACUUUGA (DNA:RNA)
RNA: B1 RNA with C25A, C27U, C28U, C30G, G31A
DNA 1: CAATCTGAATTCCGGTCTCCC
DNA 2: TGGTGGCTACGACGGGATT
B13: AGAUGGC (DNA:RNA)
RNA: B3 RNA with G25A, U26G, A30G, U31C
DNA 1: CAATCTGAATTCCGGTCTCCC
DNA 2: TGGTGGCTACGACGGGATT
B14: UGCGACU (DNA:RNA)
RNA: B1 RNA with C25U, C26G, C28G, U29A, G31U
DNA 1: CAATCTGAATTCCGGTCTCCC
DNA 2: TGGTGGCTACGACGGGATT
B15: AGACACC (DNA:RNA)
RNA: B1 RNA with C25A, C26G, C27A, U29A, G31C
DNA 1: CAATCTGAATTCCGGTCTCCC
DNA 2: TGGTGGCTACGACGGGATT
B16: UCUCGGC (DNA:RNA)
RNA: B1 RNA with C25U, C27U, U29G, C30G, G31C
DNA 1: CAATCTGAATTCCGGTCTCCC
DNA 2: TGGTGGCTACGACGGGATT
B17: GGGUUAC (DNA:RNA)
RNA: B3 RNA with U26G, A27G, G29U, U31C
DNA 1: CAATCTGAATTCCGGTCTCCC
DNA 2: TGGTGGCTACGACGGGATT
B18: UCAGCGC (DNA:RNA)
RNA: B1 RNA with C25U, C27A, C28G, U29C, C30G, G31C
DNA 1: CAATCTGAATTCCGGTCTCCC
DNA 2: TGGTGGCTACGACGGGATT
B19: UAAACGG (DNA:RNA)
RNA: B1 RNA with C25U, C26A, C27A, C28A, U29C, C30G
DNA 1: CAATCTGAATTCCGGTCTCCC
DNA 2: TGGTGGCTACGACGGGATT
B20: CUUACUC (DNA:RNA)
RNA: B1 RNA with C26U, C27U, C28A, U29C, C30U, G31C
DNA 1: CAATCTGAATTCCGGTCTCCC
DNA 2: TGGTGGCTACGACGGGATT
B21: GAAUGAU (DNA:RNA)
RNA: B3 RNA with U26A
DNA 1: CAATCTGAATTCCGGTCTCCC
DNA 2: TGGTGGCTACGACGGGATT
B22: GCCGUGU (DNA:RNA)
RNA: B1 RNA with C25G, C28G, C30G, G31U
DNA 1: CAATCTGAATTCCGGTCTCCC
DNA 2: TGGTGGCTACGACGGGATT
B23: GAACUCC (DNA:RNA)
RNA: B1 RNA with C25G, C26A, C27A, G31C
DNA 1: CAATCTGAATTCCGGTCTCCC
DNA 2: TGGTGGCTACGACGGGATT
B24: GGCCCUG (DNA:RNA)
RNA: B1 RNA with C25G, C26G, U29C, C30U
DNA 1: CAATCTGAATTCCGGTCTCCC
DNA 2: TGGTGGCTACGACGGGATT
B25: AGUGACA (DNA:RNA)
RNA: B1 RNA with C25A, C26G, C27U, C28G, U29A, G31A
DNA 1: CAATCTGAATTCCGGTCTCCC
DNA 2: TGGTGGCTACGACGGGATT
B26: AUUGUCC (DNA:RNA)
RNA: B1 RNA with C25A, C26U, C27U, C28G, G31C
DNA 1: CAATCTGAATTCCGGTCTCCC
DNA 2: TGGTGGCTACGACGGGATT
B27: AGAGGCG (DNA:RNA)
RNA: B1 RNA with C25A, C26G, C27A, C28G, U29G
DNA 1: CAATCTGAATTCCGGTCTCCC
DNA 2: TGGTGGCTACGACGGGATT
B28: CGCUGGC (DNA:RNA)
RNA: B1 RNA with C26G, C28U, U29G, C30G, G31C
DNA 1: CAATCTGAATTCCGGTCTCCC
DNA 2: TGGTGGCTACGACGGGATT
B29: GUUGUAU (DNA:RNA)
RNA: B3 RNA with A27U, U28G, G29U
DNA 1: CAATCTGAATTCCGGTCTCCC
DNA 2: TGGTGGCTACGACGGGATT
B30: UCAAUGC (DNA:RNA)
RNA: B1 RNA with C25U, C27A, C28A, C30G, G31C
DNA 1: CAATCTGAATTCCGGTCTCCC
DNA 2: TGGTGGCTACGACGGGATT
B31: GUUGACG (DNA:RNA)
RNA: B1 RNA with C25G, C26U, C27U, C28G, U29A
DNA 1: CAATCTGAATTCCGGTCTCCC
DNA 2: TGGTGGCTACGACGGGATT

Where a chain is given by its changes, count along the chain named. The list shows a part of the results.

In this assay the target is T1, RBFOX1 RRM RbFoxmut (Fox-RRM*). Briefly: EMSA; HiTS-Eq, 1 nM pool, 10 min; buffer printed only for the single-RNA assays: 10 mM Tris pH 7.5, 150 mM NaCl, 3.4 mM EDTA, 0.001% NP-40, 30 C. The conditions noted are these: tags: His6 N-terminal (pET28a); label: 5' 32P. In a few lines:
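These values rest on relative association constants, computed from read-count changes of each RNA species versus the control reaction and normalised to the cognate motif. Reads came from free RNA recovered by 8% native PAGE after purified RbFox RRM (wild type or mutant) at increasing concentrations was equilibrated for 10 min in 50 µL with 1 nM of a 5′-radiolabelled pool with 7 randomized nucleotides and DNA-annealed flanks.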
A general note: A gel shift assay detects complexes by their altered migration in electrophoresis.
In the case of B1, the binding signal was 0.116 KA relative to UGCAUGU. Next, B2: 0.142 KA relative to UGCAUGU; B3: 0.318 KA relative to UGCAUGU; B4: 0.0904 KA relative to UGCAUGU. Under B5 stands 0.0747 KA relative to UGCAUGU. Next, B6: 0.0741 KA relative to UGCAUGU. For B7, the binding signal was 0.119 KA relative to UGCAUGU. Next, B8: 0.0822 KA relative to UGCAUGU; B9: 0.0852 KA relative to UGCAUGU. As to B10, the binding signal was 0.116 KA relative to UGCAUGU.

With B11, the binding signal was 0.106 KA relative to UGCAUGU.

As to B12, the binding signal was 0.11 KA relative to UGCAUGU. Under B13 stands 0.135 KA relative to UGCAUGU. For B14, the binding signal was 0.0832 KA relative to UGCAUGU. Take B15: the binding signal is 0.0326 KA relative to UGCAUGU. Under B16 stands 0.094 KA relative to UGCAUGU; under B17, 0.0932 KA relative to UGCAUGU; under B18, 0.0871 KA relative to UGCAUGU. Next, B19: 0.0712 KA relative to UGCAUGU. On to B20, for which the binding signal was 0.0513 KA relative to UGCAUGU. Under B21 stands 0.641 KA relative to UGCAUGU; under B22, 0.128 KA relative to UGCAUGU. B23: the binding signal is 0.0356 KA relative to UGCAUGU. Next, B24: 0.093 KA relative to UGCAUGU; B25: 0.0712 KA relative to UGCAUGU.

Take B26: the binding signal is 0.0816 KA relative to UGCAUGU. Next, B27: 0.144 KA relative to UGCAUGU.

As to B28, the binding signal was 0.137 KA relative to UGCAUGU. B29: the binding signal is 0.196 KA relative to UGCAUGU.

For B30, the binding signal is 0.0703 KA relative to UGCAUGU. Next, B31: 0.0777 KA relative to UGCAUGU.

These data come from PMC9911399, “Two distinct binding modes provide the RNA-binding protein RbFox with extraordinary sequence specificity”.
